# In all, about 33,000 sequences were measured (“E-score (-0.5 to 0.5)”: median about -0.041, highest 2% from about 0.37 on). Some of the results follow.
# Molecular target: T1, Ecm22 (UniProt Q05958)
# T1 sequence: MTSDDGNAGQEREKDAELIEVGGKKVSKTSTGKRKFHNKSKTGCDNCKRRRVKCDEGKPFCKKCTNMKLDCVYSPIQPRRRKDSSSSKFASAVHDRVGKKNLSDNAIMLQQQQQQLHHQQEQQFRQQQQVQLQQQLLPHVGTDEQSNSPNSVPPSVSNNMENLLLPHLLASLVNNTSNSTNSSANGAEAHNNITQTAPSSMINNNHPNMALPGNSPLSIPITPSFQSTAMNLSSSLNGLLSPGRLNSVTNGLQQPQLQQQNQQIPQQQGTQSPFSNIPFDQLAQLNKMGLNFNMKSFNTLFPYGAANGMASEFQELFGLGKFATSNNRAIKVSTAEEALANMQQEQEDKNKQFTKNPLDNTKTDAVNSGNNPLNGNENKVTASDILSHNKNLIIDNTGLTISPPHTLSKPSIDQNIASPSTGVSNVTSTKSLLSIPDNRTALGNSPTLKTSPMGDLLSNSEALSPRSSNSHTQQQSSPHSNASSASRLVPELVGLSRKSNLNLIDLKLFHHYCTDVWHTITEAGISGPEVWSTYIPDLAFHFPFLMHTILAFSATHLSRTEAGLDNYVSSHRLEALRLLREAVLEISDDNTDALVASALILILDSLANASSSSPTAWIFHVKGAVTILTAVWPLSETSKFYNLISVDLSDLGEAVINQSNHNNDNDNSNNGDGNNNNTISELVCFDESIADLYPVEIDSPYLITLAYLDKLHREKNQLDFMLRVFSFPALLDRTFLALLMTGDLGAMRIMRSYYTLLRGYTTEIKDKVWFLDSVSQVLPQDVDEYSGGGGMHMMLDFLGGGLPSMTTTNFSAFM
# Assay: PBM E-score (8-mer binding enrichment) (E-score (-0.5 to 0.5)); higher = stronger / more preferred TF binding; most listed sequences are background and not binding sites
# Details: protein concentration: 200 nM; construct: GST-full length
# Method in brief: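 Universal all-10-mer Agilent arrays, double-stranded by primer extension on fresh or once-stripped slides, were probed with about 100-200 nM GST-tagged yeast transcription factors made by PURExpress. Fluorescent anti-GST detected bound protein, and masliner normalised the scans. E-scores from the Universal PBM Analysis Suite were given to each ungapped eight-base word pooled with its reverse complement.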
row,Sequence,PBM E-score
1,ATGTGTAG,0.0568
2,GCGATCGC,0.275
3,GGAGGTAA,-0.0735
4,CTCGTGTA,0.332
5,CAGGTGAC,-0.114
6,CGGTCCTC,0.151
7,CGAAACTA,0.141
8,GGTCATGA,-0.0265
9,AGTGCAAT,-0.0369
10,CCTCGCGC,0.215
11,CGATTTGC,0.0347
12,CCTAGACA,-0.213
13,ATACCTGA,-0.0656
14,CTCATAAA,-0.0162
15,ATCTATGA,-0.0161
16,AGGCCCCG,-0.201
17,ATCTAGAG,-0.146
18,AGGCAAGC,-0.0949
19,ATATACTG,0.0789
20,ATTTTTTC,0.0203
21,CCTGGTCG,0.166
22,CCAAGTAG,-0.114
23,CATGATAC,0.138
24,CGTCCCTA,-0.117
25,CTGGCTGC,-0.186

row,Sequence,PBM E-score
1,CGAGATTC,0.183
2,CGAATGAA,0.185
3,GAGACCCC,-0.121
4,ATTTCCTG,-0.145
5,GGACAGCA,-0.142
6,CTTTTGCC,-0.0531
7,AGGGGGGG,-0.334
8,AGACTTTG,-0.0931
9,ACTGCTAG,-0.236
10,CCAAGGAA,-0.068
11,AATTTTGA,0.0335
12,GATCAGTA,0.183
13,GATAAAAA,-0.187
14,CCCGTCGA,-0.0281
15,AAAGTGTC,0.0387
16,ACTATGGA,-0.0773
17,AGCCCGTA,0.325
18,ACGAAGAA,0.355
19,ATTCACAG,-0.0952
20,ATGAGAGG,-0.151
21,AGAGCTTG,-0.114
22,GTACGATA,0.456
23,GCCACTCC,0.109
24,AACGTTTA,0.319
25,ACGCCGGA,0.1

row,Sequence,PBM E-score
1,ACGGAATA,0.101
2,CCCGTCGC,0.0859
3,AAACACCC,-0.0996
4,CAAAATTA,0.0914
5,CCCCAAGG,-0.303
6,CTGCTTCA,-0.29
7,AAACATGT,0.102
8,CGTCATAA,0.0154
9,CCAACTGA,-0.0501
10,AAATCCAC,-0.0271
11,GTTGCACA,-0.0354
12,CACCACTA,0.0492
13,GTAGATAC,0.0534
14,CAGGACCC,-0.245
15,CGCAGTGA,0.0367
16,ATTGTAAC,0.0017
17,GCAGGTCC,0.0428
18,CCAGGACG,-0.15
19,ACATGACG,-0.0309
20,CCACGAAC,0.201
21,GAATCTAC,-0.0696
22,CTTAGTTC,0.0311
23,ACCGTTCT,0.135
24,AAGACGGC,-0.3
25,GAGTGCAA,0.151

row,Sequence,PBM E-score
1,TCAAAGGA,-0.232
2,ACCACAGT,-0.0614
3,CGCAATGC,-0.027
4,ATGTTATG,-0.0518
5,AAGCTGAG,-0.289
6,CCAGACTC,-0.0799
7,TATAGTCA,0.134
8,GTATGGTA,0.178
9,CTAAGAGA,-0.206
10,CCCCTAGG,-0.307
11,CGAGAACC,0.251
12,GACAGTAC,0.0613
13,GAGAGCAC,-0.00667
14,AGATCGCG,0.191
15,GCAGAAAC,0.0788
16,AAGTTACG,0.324
17,ACTAAAAG,0.0157
18,GACACGCA,0.0833
19,GCTAGATA,-0.0347
20,ACACGCGC,-0.0471
21,CTAAGGCA,-0.387
22,AATCGTAG,0.211
23,CGTCCCAC,-0.152
24,GAGTTGCA,-0.258
25,CTCGAATA,0.0952

row,Sequence,PBM E-score
1,ATGCACCG,-0.0745
2,AAAGAATT,-0.202
3,CCGCACAA,0.102
4,GTTGACAA,0.082
5,CTGCCCAA,-0.263
6,CACAGGTG,-0.202
7,AACTACCC,-0.127
8,ATACGTGC,0.291
9,AAGGTAGA,-0.16
10,AGATTTAA,-0.0578
11,CAGTGACC,-0.219
12,CCTGCAAA,-0.095
13,GCTACTGA,-0.00538
14,GAAAGAAA,0.14
15,AACGGTAA,0.267
16,ACTCCCGA,0.082
17,GTAGGGTA,-0.0253
18,TACAAGAA,0.0978
19,GTAAGCAC,-0.0903
20,CCGGGCTA,-0.264
21,CTAGTCAC,-0.0203
22,AGTCTACG,0.104
23,CAGGGTAG,-0.148
24,AGCAACAC,-0.00721
25,GGTCCACC,-0.214

row,Sequence,PBM E-score
1,AGCTATCA,-0.0581
2,GTCCAGAC,-0.196
3,CTCCTATA,-0.189
4,ATCATATA,0.0007
5,CCACAATC,-0.0722
6,CGTGCCTC,0.00389
7,AGTCCGGC,-0.138
8,GCACTTAC,-0.0783
9,TAAGGACA,-0.00602
10,GAACTGAA,0.172
11,ACATAGAG,-0.206
12,CAGGAAGA,-0.207
13,ACGTCTGA,0.0921
14,CTGACACC,-0.196
15,ACAATGCT,-0.207
16,ACGGACCA,0.25
17,TGGATTAA,-0.213
18,AGCCGAAA,0.0487
19,CTCCCGTA,0.285
20,GGCTTGCA,-0.165
21,CGCTGACA,-0.118
22,GTGCTAAC,-0.12
23,AATTTACC,0.0593
24,AATGACTA,-0.217
25,AAGATGAT,-0.052

row,Sequence,PBM E-score
1,CGACCGCA,0.217
2,ATGTGGGG,-0.213
3,AGCTGTAG,-0.12
4,GGTAGAAC,-0.0103
5,GCCCCCAA,-0.295
6,ACATTGGT,-0.303
7,ACTATAAG,0.0435
8,GAGGTGGC,-0.197
9,CAAAGAGG,-0.216
10,GATTCATA,-0.0359
11,AATCGACT,-0.0819
12,CTAGGAGC,-0.184
13,CAATAGCC,-0.11
14,ACGTGACT,-0.141
15,TGGTTCAA,0.0379
16,CCTCGCTC,0.372
17,CCTAGCAA,-0.29
18,GACACGAC,0.196
19,CAGTTTAA,-0.0565
20,ACCTGGGA,-0.194
21,CCGCAGTA,-0.184
22,ACATTAGT,0.0108
